Reference: the supplement of paper PMC3334620
Over roughly 33,000 sequences, “E-score (-0.5 to 0.5)” has its median near -0.043; the highest 2% begin near 0.37. The list shows a part of the results.

biological target: T1, Upc2 (UniProt Q12151); test: PBM E-score (8-mer binding enrichment) (E-score (-0.5 to 0.5)); higher = stronger / more preferred TF binding; most listed sequences are background and not binding sites; settings: protein concentration: 200 nM; construct: GST-full length
T1 sequence: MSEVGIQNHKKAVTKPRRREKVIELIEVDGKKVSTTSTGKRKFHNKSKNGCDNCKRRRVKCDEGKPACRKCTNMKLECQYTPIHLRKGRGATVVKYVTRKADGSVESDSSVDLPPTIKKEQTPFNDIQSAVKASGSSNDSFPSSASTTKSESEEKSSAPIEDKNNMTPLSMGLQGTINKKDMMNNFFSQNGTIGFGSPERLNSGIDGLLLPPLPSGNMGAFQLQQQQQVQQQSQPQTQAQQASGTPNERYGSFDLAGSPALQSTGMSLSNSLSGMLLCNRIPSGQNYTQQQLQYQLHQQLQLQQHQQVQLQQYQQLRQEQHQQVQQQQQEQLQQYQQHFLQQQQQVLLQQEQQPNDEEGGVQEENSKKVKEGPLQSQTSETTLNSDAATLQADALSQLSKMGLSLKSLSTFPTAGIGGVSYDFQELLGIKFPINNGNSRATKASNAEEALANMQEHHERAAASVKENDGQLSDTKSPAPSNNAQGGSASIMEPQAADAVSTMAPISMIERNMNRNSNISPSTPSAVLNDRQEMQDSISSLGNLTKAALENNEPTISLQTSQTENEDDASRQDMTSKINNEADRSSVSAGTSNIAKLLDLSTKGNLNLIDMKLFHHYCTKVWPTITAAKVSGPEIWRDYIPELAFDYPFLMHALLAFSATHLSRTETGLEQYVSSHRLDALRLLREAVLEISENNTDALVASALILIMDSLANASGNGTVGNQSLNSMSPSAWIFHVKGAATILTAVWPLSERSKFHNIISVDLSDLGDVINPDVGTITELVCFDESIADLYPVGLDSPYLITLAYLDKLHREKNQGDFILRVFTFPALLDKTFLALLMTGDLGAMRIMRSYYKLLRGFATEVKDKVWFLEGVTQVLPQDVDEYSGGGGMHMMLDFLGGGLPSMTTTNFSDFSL
Summary of the method: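 Yeast transcription factors, full-length or as DNA-binding domains, were expressed with a GST tag using PURExpress in vitro transcription/translation. At about 100-200 nM they were applied to universal all-10-mer Agilent arrays, double-stranded by primer extension on fresh or once-stripped slides. Fluorescent anti-GST detected bound protein, and masliner normalised the scans. E-scores for ungapped eight-base words, pooled with reverse complements, came from the Universal PBM Analysis Suite.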

Sequence | PBM E-score
AATCGTGG | -0.0802
CCCTCACG | -0.26
GCATGCCC | 0.0837
GGGTTGAC | -0.137
AAAAGGAG | 0.0684
AGACGACG | 0.237
ATCCAGTA | 0.0719
CCCTTGTA | -0.176
TAGGCACA | -0.0989
GTGATTTA | -0.0482
TCCGGGAA | -0.0708
CAGAGATC | -0.211
GCTCGCAC | 0.238
AAGTCAAA | 0.0377
AAGCACGG | 0.111
TGAGGACA | -0.0702
AAACATTA | 0.013
CCGCTTAG | 0.118
CCCACAGG | -0.209
CGGCCGGA | -0.131
TCTAACCA | -0.11
CCTACAGC | -0.334

Sequence | PBM E-score
ACTGAGAT | -0.184
AACTAAAG | -0.0481
AGGGAACA | -0.22
TACGCATA | 0.33
CTTGTCGC | 0.12
TATCGAAA | 0.0917
CAGGATTA | -0.0638
GTATCAAC | -0.139
CGAGCACC | 0.217
ACGACGAT | 0.364
AAATATGG | 0.00777
CTTGGGCC | -0.218
ATCAAGGG | -0.198
AACTGAAA | 0.0202
CCCAAGAC | -0.158
CTCTCGCA | 0.0682
CATCTTCA | -0.263
CAGAGATG | -0.222
CCTGACTC | -0.182
AGACCTTC | -0.123
GCCCATCA | -0.0741
TCAATTGA | 0.229

Sequence | PBM E-score
CCAGCGCG | 0.00961
CATCGGTC | -0.0341
GCAAGAAC | 0.0856
GCGCCCGC | -0.213
GCGATCCC | 0.0572
AAACAAGT | -0.0968
CTGGGGCC | -0.157
GCAATGGA | -0.0968
ACTACCGG | -0.246
CTGCCTCA | -0.16
GATTAGCA | -0.0131
TCGCAACA | 0.00857
ATTGACCA | 0.0151
CGCTAATA | 0.165
GTTAAACA | 0.106
AGCCCCGC | 0.134
AAGTGGCA | -0.264
GATGCCCC | -0.17
AGCAGTAC | 0.048
ACCACGTC | -0.182
CTCTCGTA | 0.453
GCACCCCC | -0.13

Sequence | PBM E-score
ACCGTGAT | -0.1
ACCTGACG | -0.288
ACCGGGTG | -0.0751
GGGGAACC | -0.0476
TGGTCACA | -0.027
CTGACCAA | 0.065
AGCAACCT | -0.0882
AACAGGTG | -0.0122
CCAAATCG | 0.0485
CCTCAGAC | -0.0866
ACAATACC | -0.0117
GGGGTACA | -0.225
ACCACATC | -0.0237
ATGTTGAG | -0.147
AACTTTGG | 0.037
GCAATTCC | -0.143
AAAGTAGG | 0.0124
AGAGGCTG | -0.357
GTTGACTA | -0.0282
ACATGTAA | 0.0361
